{"source": "PubChem BioAssay AID1477", "about": "(National Center for Advancing Translational Sciences (NCATS), 2009)", "note": "The campaign covered roughly 230,000 compounds. Fewer than 10 were called active. Inconclusive means that the source gave no clear call. Such entries were picked first, then a sample of the others. The call rests on the fitted dose curve; in most records, active means well fitted curve in the direction sought with a large enough effect; inconclusive means small, poorly fitted or top-dose-only effect, or effect the other way, or another doubt; inactive means no such curve, though single readings can be large or run the other way. Potencies of inconclusive entries are left out as doubtful fits."}
{"molecular_target": "Runt-related transcription factor 1 (Homo sapiens) + Core-binding factor subunit beta (Homo sapiens) (UniProt Q01196+Q13951)", "sequence (Q01196 whole entry, looked up)": "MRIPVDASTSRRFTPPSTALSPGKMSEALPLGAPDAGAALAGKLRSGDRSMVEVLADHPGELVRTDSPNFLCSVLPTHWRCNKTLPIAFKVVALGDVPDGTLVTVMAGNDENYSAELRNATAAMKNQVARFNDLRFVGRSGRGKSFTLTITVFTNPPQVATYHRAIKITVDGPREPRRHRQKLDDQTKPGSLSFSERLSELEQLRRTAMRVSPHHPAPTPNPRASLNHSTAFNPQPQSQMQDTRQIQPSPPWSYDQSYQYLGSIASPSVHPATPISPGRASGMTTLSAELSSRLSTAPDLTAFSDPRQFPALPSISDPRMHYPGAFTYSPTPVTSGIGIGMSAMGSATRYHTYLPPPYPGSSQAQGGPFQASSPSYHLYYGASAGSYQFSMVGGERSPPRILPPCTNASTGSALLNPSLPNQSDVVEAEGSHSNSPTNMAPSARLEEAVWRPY", "sequence (Q13951 whole entry, looked up)": "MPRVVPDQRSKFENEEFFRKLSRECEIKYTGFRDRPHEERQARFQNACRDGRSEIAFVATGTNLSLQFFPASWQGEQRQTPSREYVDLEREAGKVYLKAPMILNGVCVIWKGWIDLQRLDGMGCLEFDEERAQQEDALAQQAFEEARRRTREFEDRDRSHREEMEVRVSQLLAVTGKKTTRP", "assay": "qHTS Assay for Compounds Blocking the Interaction Between CBF-beta and RUNX1 for the Treatment of Acute Myeloid Leukemia; on activity, negative = inhibition: % of control where 0% means no effect", "conditions": "AlphaScreen CBFb-His/RUNX1-biotin binding, biochemical; activity, negative = inhibition: at 59.8 µM (top of the series) unless noted", "from_the_text": "NIH Chemical Genomics Center [NCGC]\nNIH Molecular Libraries Probe Production centers Network [MLPCN]\nAssay Submitter (PI): Paul Liu\nCore Binding Factor (CBF) abnormalities are associated with 20-25% of all acute myeloid leukemias (AML), of which 5-10% are further sub classified as acute myelomonocytic leukemia with eosinophilia, also known as M4Eo in the FAB classification scheme. This subtype of leukemia is usually associated with chromosome 16 inversion (p13:q22). Chromosome 16 inversion results in formation of the fusion oncogene CBFB-MYH11, which encodes the fusion protein CBF-beta-SMMHC.\nIt has been hypothesized that the interference of CBF-beta and RUNX1 binding could have therapeutic implications for patients with CBF mediated leukemias. We developed a CBF-beta and RUNX1 binding assay in AlphaScreenTM format and optimized it for high throughput screening to search for inhibitors. The goal of this project is to screen MLPCN's compound collection (MLSMR) for identifying the inhibitors of the interaction between CBF-beta and RUNX1 proteins as research probes. If these probes work well in the animal models, the ultimate goal of this project is to development a new drug treatment for this disease.\nThis assay can not be used to assess how apparent inhibitors interfere with protein binding, and whether inhibitors specifically bind to either protein. Disruption of this protein-protein interaction, through any mechanism, is the intended target activity.\nNCGC Assay Protocol Summary:\nStep, Parameter, Description\n(1) Reagent, 3 uL CBFb-His/RUNX1-biotin mix incubated together for 20 minutes at room temperature (30 nM each)\n(2) Compound or control, 23 nL compound stock solution\n(3) Incubation, 15 minutes at Room temperature\n(4) Reagent, 1 uL 50 ng each of beads (Nickel beads and streptavidin beads)\n(5) Incubation, 90 minutes at Room temperature\n(6) Detection, Excitation=365 nm Emission=440 nm, Envision reader in AlphaScreenTM mode\nKeywords: MLSMR, MLPCN, NIH Roadmap, qHTS, NCGC, Core binding factor, CBF, CBF-beta, Acute myeloid leukemia"}
{"compound": "CCCOc1ccc(/C=C/C(=O)Nc2ccc([N+](=O)[O-])cc2)cc1", "Potency": "inactive"}
{"compound": "COC(=O)c1ccc(N=Nc2ccccc2)cc1", "Potency": "inconclusive [inhibitor, partial curve]"}
{"compound": "COc1ccc(-c2cnnc(N/N=C/c3c(C)nn(-c4ccccc4)c3Cl)n2)cc1", "Potency": "inconclusive [inhibitor, full curve, poor fit]"}
{"compound": "CCc1ccc2oc(=O)cc(CN3CCCCC3C)c2c1", "note": "(configuration not stated)", "Potency": "inconclusive [activator, single point]"}
{"compound": "Cc1ccc(S(=O)(=O)Nc2csc(C)c2C(=O)O)cc1", "Potency": "inconclusive [inhibitor, single point]"}
{"compound": "CC1(C)OC(=O)C(=CNc2ccccc2)C(=O)O1", "Potency": "inactive"}
{"compound": "O=C(N/N=C/c1ccncc1)c1cc([N+](=O)[O-])cc([N+](=O)[O-])c1O", "Potency": "inactive"}
{"compound": "CCc1ncc(/C=C2\\C(=O)Nc3ccccc32)[nH]1", "Potency": "inactive"}
{"compound": "CC(C)Nc1cc(C(C)(C)C)nc2c(-c3ccccc3)cnn12", "Potency": "inconclusive [activator, partial curve]"}
{"compound": "O=C(NC1=NCCS1)c1cc(-c2ccc(F)cc2)nc2ccccc12", "Potency": "inactive"}
{"compound": "COc1ccc(Br)cc1CNc1ccc2[nH]c(=O)[nH]c2c1", "Potency": "inconclusive [inhibitor, single point]"}
{"compound": "C/C(=N/NC(=O)c1cccs1)c1c(C)[nH]n(-c2nc3ccccc3s2)c1=O", "Potency": "inconclusive [inhibitor, single point]"}
{"compound": "CCOC(=O)CNC(=O)c1ccc(C#CC2(O)CCCCC2)cc1", "Potency": "inactive"}
{"compound": "C=CCn1c(O)c(N=NC(=O)c2cccnc2)c2cc(Br)ccc21", "Potency": "inconclusive [activator, full curve, poor fit]"}
{"compound": "Cc1cc(N)n(-c2ccc(Oc3ccccc3)c(S(=O)(=O)O)c2)n1", "Potency": "inconclusive [inhibitor, single point]"}
{"compound": "COC(=O)CN1C(=S)N(Cc2ccccc2)C(=O)C1CC(=O)Nc1ccc(OC)cc1", "note": "(configuration not stated)", "Potency": "inconclusive [inhibitor, single point]"}
{"compound": "CC12CCC(C(=O)NCc3ccc4c(c3)OCO4)(CC1=O)C2(C)C", "note": "(configuration not stated)", "Potency": "inconclusive [inhibitor, single point]"}
{"compound": "Cc1cccc(CSC2=NCCN2C(=O)c2ccc(S(=O)(=O)N(C)C)cc2)c1", "Potency": "inconclusive [inhibitor, single point]"}
{"compound": "O=[N+]([O-])c1cccc(-c2nc(-c3cccs3)c(-c3cccs3)[nH]2)c1", "Potency": "inconclusive [inhibitor, single point]"}
{"compound": "O=[N+]([O-])c1cc(/C=N/n2c(-c3ccncc3)n[nH]c2=S)ccc1Cl", "Potency": "inconclusive [inhibitor, partial curve]"}
{"compound": "O=C(c1cc2c(s1)CCC2)N1CCN(c2ccccc2)CC1", "Potency": "inconclusive [inhibitor, partial curve]"}
{"compound": "O=C(NNc1ccccc1[N+](=O)[O-])Nc1ccc(Cl)c(Cl)c1", "Potency": "inconclusive [inhibitor, single point]"}
{"compound": "COC(=O)c1sccc1N/N=C/c1cccc(Oc2ccccc2)c1", "Potency": "inconclusive [activator, single point]"}
{"compound": "CCCCCCCC[N+](CCCCCCCC)(CCCCCCCC)CCCCCCCC", "Potency": "inconclusive [activator, partial curve]"}
{"compound": "Cc1cc(C(=O)CSc2cccc[n+]2[O-])c(C)n1-c1ccc(Br)cc1", "Potency": "inconclusive [inhibitor, single point]"}
{"compound": "c1ccc([Se]c2c(-c3ccccc3)[se]c3ccccc23)cc1", "Potency": "inconclusive [activator, single point]"}
{"compound": "CC(=O)Nc1ccc(S(=O)(=O)N2CCN(Cc3ccccc3[N+](=O)[O-])CC2)cc1", "Potency": "inactive"}
{"compound": "[O-]/C(=C(\\C(=S)Nc1ccc(SC(F)F)cc1)[n+]1ccccc1)c1ccc(Cl)cc1Cl", "Potency": "inconclusive [inhibitor, single point]"}
{"compound": "O=C(Nc1nc(-c2cccs2)c(C(=O)C(F)(F)F)s1)c1ccco1", "Potency": "inactive"}
{"compound": "COc1cccc(-n2nnc3c(=O)n(Cc4ccc(F)cc4)cnc32)c1", "Potency": "inactive"}
{"compound": "CC(C)C[C@@H](CC(=O)N[C@H](CC(=O)N[C@@H]1CCNC[C@H]1C(=O)N[C@H](CC(=O)N[C@@H](CCC(=O)O)CC(=O)O)Cc1c[nH]c2ccccc12)C(C)C)NC(=O)[C@@H]1CCCC[C@H]1N", "Potency": "inconclusive [activator, single point]"}
{"compound": "CCCCN(C)CCn1c(=S)[nH]c2cc(OCC)c(OCC)cc2c1=O", "Potency": "inactive"}
{"compound": "Cc1ccc(C2(C)NC(=O)N(CC(=O)Nc3cccnc3Cl)C2=O)cc1", "note": "(configuration not stated)", "Potency": "inconclusive [inhibitor, single point]"}
{"compound": "COc1ccc(SCCN2CCN(CCc3ccccc3)CCC2=O)cc1", "Potency": "inconclusive [inhibitor, single point]"}
{"compound": "CCC(=O)NC(c1ccc(N(C)C)cc1)c1c(O)ccc2ccccc12", "note": "(configuration not stated)", "Potency": "inconclusive [inhibitor, single point]"}
{"compound": "CO[C@H]1C=CO[C@@]2(C)Oc3c(C)c(O)c4c(O)c(c(C=NN5CCN(C)CC5)c(O)c4c3C2=O)NC(=O)C(C)=CC=C[C@H](C)[C@H](O)[C@@H](C)[C@@H](O)[C@@H](C)[C@H](OC(C)=O)[C@@H]1C", "Potency": "inconclusive [inhibitor, partial curve]"}
{"compound": "COc1cc(OC)cc(-c2nc(-c3cccs3)no2)c1", "Potency": "inconclusive [activator, single point]"}
{"compound": "C/C=C/C(O)c1ccc2ccccc2c1", "note": "(configuration not stated)", "Potency": "inconclusive [activator, single point]"}
{"compound": "CC1=NN(c2ccccc2)C(=O)/C1=C/C=C/c1ccccc1", "Potency": "inactive"}
{"compound": "O=c1[nH]c(CN2CCc3ccccc32)nc2scc(-c3cccs3)c12", "Potency": "inactive"}
{"compound": "COC(=O)c1ccc(CC(=O)c2ccc(O)cc2O)o1", "Potency": "inactive"}
{"compound": "Cc1ccc(NC(=O)Cn2cnc3cc([N+](=O)[O-])ccc3c2=O)c(Cl)c1", "Potency": "inconclusive [inhibitor, single point]"}
{"compound": "COc1cc(NS(=O)(=O)c2ccc(C)cc2)c2ncccc2c1", "Potency": "inconclusive [inhibitor, single point]"}
{"compound": "CN1C(=O)C2C(c3ccc(N(C)C)cc3)=NN(Cc3ccccc3)C2C1=O", "note": "(configuration not stated)", "Potency": "inconclusive [inhibitor, single point]"}
{"compound": "Cc1ccc(S(=O)(=O)N(C)C)cc1NC(=O)C1CCCC1", "Potency": "inconclusive [activator, partial curve]"}
{"compound": "O=C(Nc1ccccc1Cl)C1C2CCC3C(CCC21)C3(Cl)Cl", "note": "(configuration not stated)", "Potency": "inconclusive [activator, single point]"}
{"compound": "CCC1=Nc2cc(C(=O)NCc3ccco3)ccc2Sc2ccc(Cl)cc21", "Potency": "inconclusive [inhibitor, single point]"}
{"compound": "CC1CC(C)CN(C(=O)c2ccncc2)C1", "note": "(configuration not stated)", "Potency": "inactive"}
{"compound": "Cn1cccc1-c1nc2ccccc2n1Cc1ccccc1", "Potency": "inconclusive [inhibitor, single point]"}
{"compound": "CCOC(=O)C1CCN(C(=O)CSCc2nc(-c3ccc(OCC)cc3)oc2C)CC1", "Potency": "inactive"}
{"compound": "O=C(CN1CCN(c2ccccc2)CC1)Nc1nnc(-c2ccccc2)s1", "Potency": "inactive"}
{"compound": "Cn1cccc1-c1cccnc1", "Potency": "inconclusive [inhibitor, partial curve]"}
{"compound": "CC(=O)Nc1cccc(OC(=O)c2ccoc2C)c1", "Potency": "inconclusive [inhibitor, single point]"}
{"compound": "Cc1cc(C)n(-c2nnc(NC34CC5CC(CC(C5)C3)C4)nn2)n1", "Potency": "inconclusive [inhibitor, single point]"}
{"compound": "CCOC(=O)c1cc(-c2ccc(OC)cc2)nc2c1c(C)nn2CCC#N", "Potency": "inconclusive [activator, partial curve]"}
{"compound": "O=[N+]([O-])c1ccccc1Nc1ccc(O)cc1", "Potency": "inconclusive [inhibitor, partial curve]"}
{"compound": "C[C@H]1C(c2ccccc2)=NN(c2ccccc2)[C@@H]1CO", "Potency": "inconclusive [activator, partial curve]"}
{"compound": "CCCCn1c(O)c(/C=N/NC(=O)c2ccncc2)c(=O)[nH]c1=O", "Potency": "inconclusive [inhibitor, single point]"}
{"compound": "CN1C(=O)C2(c3ccccc31)N(C)CC(c1ccccn1)C21SC(=S)N(Cc2ccco2)C1=O", "note": "(configuration not stated)", "Potency": "inconclusive [inhibitor, single point]"}
{"compound": "CCOc1cc(/C=C2\\C(=O)NC(=O)N(CCc3ccc(F)cc3)C2=O)ccc1O", "Potency": "inactive"}
{"compound": "N#C/C(=N\\Nc1ccc([N+](=O)[O-])cc1)C(N)=S", "Potency": "inconclusive [inhibitor, single point]"}
{"compound": "CC(C)(C)c1csc(Sc2ccc([N+](=O)[O-])cn2)n1", "Potency": "inactive"}
{"compound": "CCN(CC)CCCC(C)NC(=O)c1ccc(C(F)(F)F)cc1", "note": "(configuration not stated)", "Potency": "inconclusive [activator, single point]"}
{"compound": "N#Cc1c(C(F)(F)F)cc(C2CC2)nc1N1CCCC1", "Potency": "inconclusive [activator, partial curve]"}
{"compound": "Cc1ccc(-c2[nH]c(-c3ccc(Cl)cc3)nc2SCC(=O)NCC2CCCO2)cc1", "note": "(configuration not stated)", "activity, negative = inhibition": "inactive: 3.08% [at 2.36 µM]"}
{"compound": "CCN(CC)c1ccc(NC(=O)CN2CCN(S(=O)(=O)c3cc(Cl)ccc3OC)CC2)cc1", "Potency": "inconclusive [inhibitor, single point]"}
{"compound": "Nc1cc2c(cc1O)CCCC2", "Potency": "inconclusive [inhibitor, single point]"}
